According to PubChem BioAssay AID904 (National Center for Advancing Translational Sciences (NCATS), 2007):
In all, about 55,000 compounds went through this assay and about 530 (0.96%) were called active. This list was built around the results that the source calls inconclusive (neither active nor inactive); the mix of calls is not that of the screen. Calls come from the whole dose curve; as a rule, active = well fitted cell-killing curve with a large enough effect; inconclusive = small, poorly fitted or top-dose-only effect; inactive = no such curve, though single readings can be large or run the other way. Potencies of inconclusive entries are doubtful fits and often do not repeat.

assay: qHTS Screen for Compounds that Selectively Target Cancer Cells with p53 Mutations: Cytotoxicity of p53 Null Cells at the Nonpermissive Temperature; settings: H1299 p53-null (neo) cells, 39C, ATPlite viability, 24 h; series mostly up to 46.1 µM; note: nearly all actives have a fitted effect of over 50% in size
In short: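 Luminescent ATP signal reported cell survival after H1299 lines (neo, p53 null; or p53 A138V) received up to 46 uM compound and 24 hr incubation at 39C.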
Potency is the fitted concentration of half-maximal effect; tags give direction and shape of the fitted curve.

SMILES | Potency
COc1cccc(-c2nc(CSCC(=O)NCCc3ccc(Cl)cc3)c(C)o2)c1 | inconclusive: 31.6 µM [cytotoxic, single point]
CCCCN(CCCC)CC(O)Cn1cc(/C=C/C(=O)c2ccccc2)c2ccccc21 (configuration not stated) | inconclusive: 12.6 µM [cytotoxic, partial curve, poor fit]
Cc1ccc(NC(=O)/C(C#N)=C/c2ccc(C)o2)cc1 | inconclusive: 2.51 µM [cytotoxic, full curve, poor fit]
COc1ccc(CCNc2ncnc3c2cnn3-c2cccc(Cl)c2)cc1 | inactive
Cc1ccc(Cl)cc1NC(=O)CSC1=Nc2ccccc2C2=NC(Cc3ccccc3)C(=O)N12 (configuration not stated) | inconclusive: 12.6 µM [cytotoxic, partial curve]
COc1cccc(OCc2nc3ccccc3n2Cc2ccccc2)c1 | inactive
Cc1cccc(NC(=O)CSc2nnc(-c3ccccc3C)o2)c1 | active: 10 µM
COc1ccc(NCc2nc3ccccc3n2CCOc2ccccc2C)cc1 | inconclusive: 35.5 µM [cytotoxic, single point]
CCCCN(CCCNC(=O)c1cc(Nc2ccc(OC)cc2OC)nc2ccccc12)Cc1ccccc1 | inconclusive: 35.5 µM [cytotoxic, single point]
COc1ccccc1-c1cc(C(=O)Nc2c(C)nn(Cc3ccc(Cl)cc3)c2C)no1 | inconclusive: 5.62 µM [cytotoxic, single point]
CCc1ccccc1NC(=O)Cn1nc(-c2cc(C)ccc2C)c2c(c1=O)CCCC2 | inactive
Cc1nn(-c2ccccc2)c2c1N(CCCC(=O)NCc1ccc(OC(C)C)cc1)C(=O)CS2 | inactive
COc1ccc(N2CCN(C(=O)c3c(C)nn(-c4ccc(F)cc4)c3-n3cccc3)CC2)cc1 | inconclusive: 5.62 µM [cytotoxic, single point]
Cc1cccc(C(=O)Nc2nc3c(s2)CCCC3)c1 | active: 12.6 µM
Cc1ccc(CN(Cc2ccco2)C(=O)c2ccccc2Cl)o1 | inconclusive: 0.005 µM [cytotoxic, full curve, poor fit]
CCOC(=O)c1ccc(N2C(=O)c3n[nH]c(-c4ccco4)c3C2c2cccc(F)c2)cc1 (configuration not stated) | inconclusive: 31.6 µM [cytotoxic, single point]
CCc1ccccc1N(C)C(=O)c1cc2c(s1)-c1c(C)cccc1OC2 | inconclusive: 11.2 µM [cytotoxic, single point]
COc1ccccc1C(=O)CC1(O)C(=O)N(CC(N)=O)c2ccccc21 (configuration not stated) | inconclusive: 0.126 µM [cytotoxic, full curve, poor fit]
CC(C)c1ccc(S(=O)(=O)Nc2cc3c(cc2NCc2ccccc2)n(C)c(=O)n3C)cc1 | inconclusive: 10 µM [cytotoxic, partial curve]
Cc1cc(C)cc(N(CC(=O)Nc2ccc(C(F)(F)F)cc2)S(=O)(=O)c2c(C)[nH]c(=O)[nH]c2=O)c1 | inactive
COc1ccc(-c2cc(C(=O)Oc3ccc(Cl)cc3)c3ccccc3n2)cc1 | inconclusive: 2 µM [cytotoxic, full curve]

SMILES | Potency
Cn1c(NCc2ccccc2F)nc2ccccc21 | inconclusive: 11.2 µM [cytotoxic, partial curve, poor fit]
CCOc1ccc(-n2c(-c3ccc(OC)cc3)cc3c2CC(C)(C)CC3=O)cc1 | inactive
CCOc1cccc(NC(=O)CSc2ncc(-c3ccc(Cl)cc3)[nH]2)c1 | inconclusive: 35.5 µM [cytotoxic, single point]
CCc1ccc2oc(-c3cccc(NC(=O)c4ccc(-c5cccc([N+](=O)[O-])c5)o4)c3)nc2c1 | inconclusive: 2.51 µM [cytotoxic, single point]
Cc1cccc(C(=O)n2nc(-c3ccco3)nc2NCc2ccccc2)c1 | inconclusive: 6.31 µM [cytotoxic, partial curve, poor fit]
COc1ccc(Cl)cc1S(=O)(=O)Nc1ccc2c(c1)n(C)c(=O)n2C | inconclusive: 12.6 µM [cytotoxic, single point]
CCC(=O)N1c2ccccc2CC1C(=O)NCCCN1CCN(c2ccc(F)cc2)CC1 (configuration not stated) | inactive
O=C(CSc1c2c(nc3ccc(Cl)cc13)CCCC2)N1CCN(c2ccc(Cl)cc2)CC1 | inactive
COc1ccccc1NC(=O)CSc1ncc(CO)n1Cc1ccc(F)cc1 | inconclusive: 0.224 µM [cytotoxic, full curve, poor fit]
Cc1[nH]c2ccccc2c1C1(O)C(=O)N(Cc2ccccc2)c2ccc(Br)cc21 (configuration not stated) | inconclusive: 14.1 µM [cytotoxic, single point]
Cc1ccc2nc(-c3ccc(N4CCOCC4)cc3)c(Nc3ccccc3C)n2c1 | active: 5.01 µM
Cc1nnc(SCC(=O)NCc2cccc(F)c2)c2nn(-c3ccccc3)c(C)c12 | inactive
COc1ccc(-n2nc3c(N4CCCC(C(=O)NCc5ccccc5C)C4)nnc(C)c3c2C)cc1 (configuration not stated) | active: 15.8 µM
CCc1ccccc1-n1nnc(-c2nc(-c3ccccc3F)no2)c1C | inactive
Cn1c(=O)n(C)c2cc(NS(=O)(=O)c3ccc(Cl)cc3)c(NCc3ccccc3)cc21 | inconclusive: 6.31 µM [cytotoxic, partial curve]
COc1ccc2c(c1)CC(C(=O)Nc1c(C)cc(C)cc1C)CO2 (configuration not stated) | inconclusive: 0.126 µM [cytotoxic, full curve]
CCc1ccc(-c2nc(CN3CCCC(C(=O)NCc4ccccc4Cl)C3)c(C)o2)cc1 (configuration not stated) | inconclusive: 20 µM [cytotoxic, single point]
CCOC(=O)c1c(NC(=O)C(C)Oc2ccccc2F)sc(C(C)=O)c1C (configuration not stated) | inconclusive: 0.0794 µM [cytotoxic, partial curve, poor fit]
CCc1ccc(C2=CC(c3cccc(OC)c3OC)n3c(nc4ccccc43)N2)cc1 (configuration not stated) | inconclusive: 25.1 µM [cytotoxic, single point]
Cc1ccccc1Nc1nnc(SCC(=O)Nc2ccccc2[N+](=O)[O-])s1 | inconclusive: 35.5 µM [cytotoxic, single point]
Cc1c(Cl)cccc1-c1ccc(C(=O)Nc2ccc3oc(-c4cccnc4)nc3c2)o1 | inactive
